# Out of some 150,000 compounds screened, about 540 (0.36%) showed an effect of 50% or more. The list shows a part of the results.
# Test system: Plasmodium falciparum
# Assay: Primary screen in NF54 nanoGlo assay, in single point, at 2uM, 72h; a lower Z score goes with more inhibition
# Assay type: functional, Erythrocyte
# Settings: timepoint 72 hour
Structure (SMILES),% Inhibition [%],Z score
CN(C)CCN1CCN(c2ccc(Cl)cn2)C[C@@H](O)C1,-15,2.85
CCCCc1nc(-c2nccn2[C@H]2COC[C@@H]2OCC)c[nH]1,-2,0.31
O=C(c1cc2c(F)cccc2s1)N1CCc2ccccc2C1,0,0.08
CCOc1ccc(S(=O)(=O)N2CCC(c3c(C)n(Cc4ccc(Cl)cc4)c4ccccc34)CC2)cc1,13,-1.82
Cc1cc(NC(=O)NCC2(NC(=O)OC(C)(C)C)CCCCCC2)no1,2,-0.27
O=C1[C@@H]2Cc3c([nH]c4ccccc34)C(c3ccc(Cl)cc3)N2C(=O)CN1CCc1ccc(F)cc1 (some centres undefined),10,-1.48
O=C(CN1CCC[C@H]1c1ccc(F)c(F)c1)N1CCC1,-10,1.39
CCOC[C@@H](O)CNc1ncccc1F,-1,0.19
CC(C)n1c(=O)n(CC(=O)NC2CCCC2)c2cc(S(=O)(=O)N3CCCC3)ccc21,12,-1.41
O=C(NCC[C@H]1CCOC1)c1cncc(Cl)c1,2,-0.32
O=C(Cc1ccccc1)Nc1ccc(N2CCN(Cc3ccncc3)CC2)nc1,-18,1.75
CC(C)N1C[C@@]2(CCCN(C(=O)c3cccn4cnnc34)C2)CCC1=O,-7,1.21
C[C@H](C(=O)Nc1c(F)cccc1F)C1CCN(C(=O)Nc2ccc(Cl)cc2)CC1,-11,2.04
CC(C)C(=O)N1CCC(F)(F)[C@@H](C)C1,1,-0.25
CC(=O)N1C[C@H](NC(=O)C2(C)CCCC2)[C@@H](C2CC2)C1,-4,0.73
CCO[C@H]1CCN(C(=O)Nc2ccc(C(=O)NC)nn2)C1,-1,0.2
Cc1cc(C)c2[nH]c(C(=O)N(C)[C@H](c3ccccn3)C3CC3)c(C)c2c1,3,-0.48
CCC(O)C1CCCCN1CC(=O)N(C)C (centres undefined),-1,0.14
O=C(NC1CCCCC1)c1ccc(CCc2nc3ccccc3[nH]2)cc1,15,-1.76
COc1ccc(-n2ncc3c2NC(=O)C[C@]32C(=O)N(CC(N)=O)c3ccc(C)cc32)cc1,-1,0.12
COCCN1C[C@@H](Cc2ccc3c(c2)OCO3)CC1=O,-1,0.17

Structure (SMILES),% Inhibition [%],Z score
CC(C)(C)c1nnc(NCCCOCC2CCOCC2)s1,-2,0.31
CCn1ccc2c(cc(C(=O)Nc3cccc(Cl)c3)n2C)c1=O,-6,0.58
Cn1nnc2c(N[C@@H]3CC=C(c4ccc(F)cc4)CC3)ncnc21,-9,1.7
Cn1cncc1[C@H]1[C@H](NC(=O)[C@H]2CC2(C)C)CCC(=O)N1C1CC1,2,-0.33
COc1cccc(C(=O)NC[C@](C)(O)C2CCCC2)c1,-3,0.36
Cc1cc2c(N3CCCC3CC(O)c3ccc(F)cc3)nccn2n1 (centres undefined),-11,1.44
CCCn1cnnc1CN(C)C(=O)NCC1(N2CCN(C)CC2)CCCC1,-2,0.4
O=C(CN1C(=O)[C@@H]2CCCN2C(=O)c2ccc(F)cc21)Nc1ccccc1F,6,-0.92
CC(=O)N1CC(NC(=O)c2cscc2-c2ccccc2)C1,-13,1.67
CN(C)c1cccc(C(=O)N2C[C@H]3CC[C@@H](C2)N(C)C3)c1,-21,2.22
Cc1nn(C)c(Cl)c1C(=O)N[C@@H](C)CCc1ccccc1,-4,0.62
CC(C)(C)S(=O)(=O)N1CCC(NC(=O)N2CC(F)C2)CC1,-8,1.77
Cc1cc(N2CCN(S(=O)(=O)c3cccs3)CC2)nc(N2CCOCC2)n1,-14,2.13
Cc1nc(-c2c(-c3ccccc3)ncn2C)c[nH]1,-8,1.07
CN(C)C(=O)CO[C@H]1COCC[C@@H]1NC(=O)c1cc(C(F)(F)F)n[nH]1,-8,1.36
O=C(Nc1ccc2c(c1)OCO2)Nc1cnn(C[C@H]2COc3ccccc3O2)c1,13,-1.66
CCCn1c(=O)[nH]c(=O)c2c1nc(-c1ccc(-c3ccccc3)cc1)n2CCOC,13,-1.57
COc1cc(NC(C)=O)ccc1NCc1sccc1Cl,-9,1.44
Cc1cc(C)c(-c2ccc(C(=O)NC3CCOCC3)nc2)c(C)c1,-4,0.64
CCOC1CCN(C(=O)[C@@H]2CC[C@H](NC(=O)c3nc(C)c[nH]3)C2)CC1,1,-0.14
O=C(NCc1cccc(Cl)c1)[C@H]1CCCN(c2nc3ccccc3n(Cc3ccccc3)c2=O)C1,-5,0.81

# From ChEMBL document CHEMBL4888484, “Replenishing the malaria drug discovery pipeline: Screening and hit evaluation of the MMV Hit Generation Library 1 (HGL1) against asexual blood stage Plasmodium falciparum ,using a nano luciferase reporter read-out” (2022)
